According to paper PMC7261776:
Where two headings read alike, the source gives them in different places. Results are given in words; binding and its absence hold for the method and conditions named. For some assays here: Binding seen in cells or lysates may run through a third protein. Some results given as binding are weak or reduced against the parent protein; the word gives no strength. For some assays here: Tags and fused reporters may be left off the sequences shown.

Sequences of proteins named here, by UniProt entry; tags and fusion partners are left off.
UniProt A0A7G3WX95: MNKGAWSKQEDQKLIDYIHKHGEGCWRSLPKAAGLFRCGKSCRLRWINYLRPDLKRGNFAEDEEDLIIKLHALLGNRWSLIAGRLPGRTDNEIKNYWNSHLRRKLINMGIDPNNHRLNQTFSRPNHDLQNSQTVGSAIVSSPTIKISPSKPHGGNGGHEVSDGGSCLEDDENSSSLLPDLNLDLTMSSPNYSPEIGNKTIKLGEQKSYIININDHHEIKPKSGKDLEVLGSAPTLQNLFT

T1: TTG1 (yeast two-hybrid fusion) (Morus alba L. cv. Hongguo2)
T1 sequence: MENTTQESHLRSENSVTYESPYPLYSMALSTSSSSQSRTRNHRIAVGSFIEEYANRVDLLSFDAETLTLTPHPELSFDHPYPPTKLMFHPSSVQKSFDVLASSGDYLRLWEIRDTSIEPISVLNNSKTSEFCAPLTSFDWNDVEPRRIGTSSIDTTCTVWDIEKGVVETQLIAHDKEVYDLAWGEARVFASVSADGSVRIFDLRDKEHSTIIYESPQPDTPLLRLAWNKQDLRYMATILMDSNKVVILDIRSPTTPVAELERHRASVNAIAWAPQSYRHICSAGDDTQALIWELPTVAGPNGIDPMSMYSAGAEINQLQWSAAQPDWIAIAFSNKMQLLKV

T2: GL3 (yeast two-hybrid fusion) (Morus alba L. cv. Hongguo2)
T2 sequence: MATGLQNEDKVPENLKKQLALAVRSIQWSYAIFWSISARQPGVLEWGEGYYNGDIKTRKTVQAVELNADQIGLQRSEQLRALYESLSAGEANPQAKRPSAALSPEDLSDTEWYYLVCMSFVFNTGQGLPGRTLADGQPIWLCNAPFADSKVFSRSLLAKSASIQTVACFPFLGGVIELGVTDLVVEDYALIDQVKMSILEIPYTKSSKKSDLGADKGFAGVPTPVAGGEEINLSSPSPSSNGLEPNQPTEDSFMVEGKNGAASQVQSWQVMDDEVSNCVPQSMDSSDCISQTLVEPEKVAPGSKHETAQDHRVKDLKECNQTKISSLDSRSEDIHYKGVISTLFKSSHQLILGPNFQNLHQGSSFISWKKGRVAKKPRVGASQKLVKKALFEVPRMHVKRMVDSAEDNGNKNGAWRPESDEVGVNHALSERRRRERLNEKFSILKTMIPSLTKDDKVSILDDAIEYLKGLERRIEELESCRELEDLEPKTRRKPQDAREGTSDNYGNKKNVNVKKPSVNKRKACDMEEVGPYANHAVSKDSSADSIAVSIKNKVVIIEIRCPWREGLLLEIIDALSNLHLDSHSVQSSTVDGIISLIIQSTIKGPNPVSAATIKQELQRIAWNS

T3: TTG1 in pBridge MCS I (yeast three-hybrid bait) (Morus alba L. cv. Hongguo2)
T3 sequence: T1 sequence

T4: TTG1 in pCambia1300cLUC (CLuc-TTG1) (Morus alba L. cv. Hongguo2)
T4 sequence: T1 sequence

T5: CLuc-GL3 (Morus alba L. cv. Hongguo2)
T5 sequence: T2 sequence

B1: MYBA (yeast two-hybrid fusion) (protein, UniProt A0A7G3WX87 1-311)
chain: MQTEGCSSTGGVRKGAWTREEDILLKKCIDKYGEGKWQLVPSRAGLNRCRKSCRLRWMNYLKPDVKRGEFTVDEVDLILRLHKLLGNRWALIAGRIPGRTANDVKNYWNTHLRKKVALFPHDKNTKNTNNDIIAKSKVFRPRPRTPKTQPSLTNKNNSASSTTNFAAISINIQPTDDGNNNNNNNINYNNNNNNEPVIPVLEDSKYWWESLLDDITSDEGVANSVSSTGLLDHGQPNNGNIANFLSELEADQPALSISPWPTDVTDSATSTCVNLVEDDYGHQNSWTDFIMDMDVELWGLPSKDQGNAEMQ
B2: GL3 in pBridge MCS II (yeast three-hybrid bridge) (protein, UniProt A0A7G3WX92 1-624)
chain: T2 sequence
B3: TT2L3 (yeast two-hybrid fusion) (protein, UniProt A0A7G3WX90 1-238)
chain: MGERRPRISGGSDEGSSRRWTAMEDKTLTEYIRINGERQWNCLPQNAGLKKSGRSCRLRWLNYLKPGIKRGNISQKEEDTIIRLHKNLGNRWSVIAGLLPGRTDNEIKNYWNTKISKKIKEDDCKADSTTSSDPKPSIGHESLEVPNLTTKQQLGLCEVPQTSLNESDETSIPSPEEARMELEDDPVAAQPRDIYGVVHEHFETILSPVRICEDKWQLMHDDVWMDFEIWNTFPDQQY

Assays:
[1] = biological target: T1, TTG1 (yeast two-hybrid fusion) (Morus alba L. cv. Hongguo2); experiment: two-hybrid; yeast two-hybrid with pGADT7 and pGBKT7 fusions; SD-Trp-Leu-His-Ade+(X-a-Gal) medium
[2] = biological target: bHLH3 (yeast two-hybrid fusion) (Morus alba L. cv. Hongguo2); experiment: as above
[3] = biological target: T2, GL3 (yeast two-hybrid fusion) (Morus alba L. cv. Hongguo2); experiment: as above
[4] = biological target: T3, TTG1 in pBridge MCS I (yeast three-hybrid bait) (Morus alba L. cv. Hongguo2); experiment: yeast three-hybrid; Y2HGold; TTG1 in pBridge MCS I, GL3 in pBridge MCS II, MYB in pGADT7; SC-Leu-Trp-Met-His medium with 0 and 30 mM 3-AT
[5] = biological target: T3, TTG1 in pBridge MCS I (yeast three-hybrid bait) (Morus alba L. cv. Hongguo2); experiment: yeast three-hybrid; Y2HGold; TTG1 in pBridge MCS I, bHLH3 in pBridge MCS II, MYB in pGADT7; SC-Leu-Trp-Met-His medium with 0 and 30 mM 3-AT
[6] = biological target: CLuc-bHLH3 (Morus alba L. cv. Hongguo2); experiment: split reporter; split luciferase complementation in Nicotiana benthamiana leaves (pCambia1300nLUC / pCambia1300cLUC), firefly luciferase activity 3 days after infiltration
[7] = biological target: T4, TTG1 in pCambia1300cLUC (CLuc-TTG1) (Morus alba L. cv. Hongguo2); experiment: as above
[8] = biological target: T5, CLuc-GL3 (Morus alba L. cv. Hongguo2); experiment: as above
[9] = biological target: T3, TTG1 in pBridge MCS I (yeast three-hybrid bait) (Morus alba L. cv. Hongguo2); experiment: yeast three-hybrid; Y2HGold; TTG1 in pBridge MCS I, GL3 in pBridge MCS II, MYB in pGADT7; SC-Leu-Trp-Met-His medium with 0 and 30 mM 3-AT; remark: listed apart in the source
[10] = biological target: T1, TTG1 (yeast two-hybrid fusion) (Morus alba L. cv. Hongguo2); experiment: two-hybrid; yeast two-hybrid with pGADT7 and pGBKT7 fusions; SD-Trp-Leu-His-Ade+(X-a-Gal) medium; remark: listed apart in the source
[11] = biological target: bHLH3 (yeast two-hybrid fusion) (Morus alba L. cv. Hongguo2); experiment: as above; remark: listed apart in the source
[12] = biological target: T2, GL3 (yeast two-hybrid fusion) (Morus alba L. cv. Hongguo2); experiment: as above; remark: listed apart in the source

| Molecule | binding [5] | binding [9] | binding [10] | binding [11] | binding [12] | other results |
| --- | --- | --- | --- | --- | --- | --- |
| MYB4 (yeast two-hybrid fusion) (from UniProt A0A7G3WX95 1-240) | binds | – | – | – | – | binding [1]: binds; binding [2]: binds; binding [3]: binds; binding [4]: binds |
| MYB4-NLuc (from UniProt A0A7G3WX95 1-240) | – | – | – | – | – | binding [6]: binds; binding [7]: binds; binding [8]: binds |
| B1 | binds | binds | binds | binds | binds | – |
| B2 | – | binds | – | – | – | – |
| B3 | – | – | no binding | no binding | no binding | – |
